# Source: the supplement of paper PMC8728848
# Some of the results follow.
# B1: Als3-2 (Candida albicans) (protein)
# chain: KTITGVFNSFNSLTWSNAATYNYKGPGTPTWNAVLGWSLDGTSASPGDTFTLNMPCVFKFTTSQTSVDLTAHGVKYATCQFQAGEEFMTFSTLTCTVSNTLTPSIKALGTVTLPLAFNVGGTGSSVDLEDSKCFTAGTNTVTFNDGGKKISINVDFERSNVDPKGYLTD
# Key:
# Assay in all cases: glycan array binding signal (z-score within array); higher = stronger binding
# Conditions in all cases: glycan notation: IUPAC condensed, linker removed
# [1] = biological target: Neu5Ac(a2-3)Gal(b1-4)GlcNAc(b1-2)[Neu5Ac(a2-3)Gal(b1-4)GlcNAc(b1-4)]Man(a1-3)[GlcNAc(b1-4)][Neu5Ac(a2-3)Gal(b1-4)GlcNAc(b1-4)Man(a1-6)]Man(b1-4)GlcNAc(b1-4)GlcNAc
# How it was run: (§1)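 Negative Z-scores can be read as non-binding. The Z-score is calculated within each array and then averaged across arrays of one protein sequence at different concentrations or buffers and across linkers. Arrays, 3228 in all, were curated from the Consortium for Functional Glycomics database and kept only where the protein sequence was available.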
# [2] = biological target: Neu5Ac(a2-3)Gal(b1-4)GlcNAc(b1-2)[Neu5Ac(a2-3)Gal(b1-4)GlcNAc(b1-6)]Man(a1-6)[Neu5Ac(a2-3)Gal(b1-4)GlcNAc(b1-2)Man(a1-3)]Man(b1-4)GlcNAc(b1-4)GlcNAc
# How it was run: as §1
# [3] = biological target: Neu5Ac(a2-3)Gal(b1-4)GlcNAc(b1-2)[Neu5Ac(a2-3)Gal(b1-4)GlcNAc(b1-6)]Man(a1-6)[Neu5Ac(a2-3)Gal(b1-4)GlcNAc(b1-2)Man(a1-3)][GlcNAc(b1-4)]Man(b1-4)GlcNAc(b1-4)GlcNAc
# How it was run: as §1
# [4] = biological target: Neu5Ac(a2-3)Gal(b1-4)GlcNAc(b1-3)Gal
# How it was run: as §1
# [5] = biological target: Neu5Ac(a2-3)Gal(b1-4)GlcNAc(b1-3)Gal(b1-3)GlcNAc
# How it was run: as §1
# [6] = biological target: Neu5Ac(a2-3)Gal(b1-4)GlcNAc(b1-3)Gal(b1-4)GlcNAc
# How it was run: as §1
# [7] = biological target: Neu5Ac(a2-3)Gal(b1-4)GlcNAc(b1-3)Gal(b1-4)GlcNAc(b1-2)Man(a1-3)[Neu5Ac(a2-3)Gal(b1-4)GlcNAc(b1-3)Gal(b1-4)GlcNAc(b1-2)Man(a1-6)]Man(b1-4)GlcNAc(b1-4)GlcNAc
# How it was run: as §1
# [8] = biological target: Neu5Ac(a2-3)Gal(b1-4)GlcNAc(b1-3)Gal(b1-4)GlcNAc(b1-3)Gal(b1-4)GlcNAc
# How it was run: as §1
# [9] = biological target: Neu5Ac(a2-3)Gal(b1-4)GlcNAc(b1-3)Gal(b1-4)GlcNAc(b1-3)Gal(b1-4)GlcNAc(b1-2)Man(a1-3)[Neu5Ac(a2-3)Gal(b1-4)GlcNAc(b1-3)Gal(b1-4)GlcNAc(b1-3)Gal(b1-4)GlcNAc(b1-2)Man(a1-6)]GalNAc
# How it was run: as §1
# [10] = biological target: Neu5Ac(a2-3)Gal(b1-4)GlcNAc(b1-3)Gal(b1-4)GlcNAc(b1-3)GalNAc
# How it was run: as §1
# [11] = biological target: Neu5Ac(a2-3)Gal(b1-4)GlcNAc(b1-3)Gal(b1-4)GlcNAc(b1-3)[Neu5Ac(a2-3)Gal(b1-4)GlcNAc(b1-3)Gal(b1-4)GlcNAc(b1-6)]GalNAc
# How it was run: as §1
# [12] = biological target: Neu5Ac(a2-3)Gal(b1-4)GlcNAc(b1-3)Gal(b1-4)GlcNAc(b1-6)[Gal(b1-3)]GalNAc
# How it was run: as §1
# [13] = biological target: Neu5Ac(a2-3)Gal(b1-4)GlcNAc(b1-3)Gal(b1-4)[Fuc(a1-3)]GlcNAc
# How it was run: as §1
# [14] = biological target: Neu5Ac(a2-3)Gal(b1-4)GlcNAc(b1-3)GalNAc
# How it was run: as §1
# [15] = biological target: Neu5Ac(a2-3)Gal(b1-4)GlcNAc(b1-3)[Neu5Ac(a2-3)Gal(b1-4)GlcNAc(b1-6)]GalNAc
# How it was run: as §1
# [16] = biological target: Neu5Ac(a2-3)Gal(b1-4)GlcNAc(b1-6)GalNAc
# How it was run: as §1
# [17] = biological target: Neu5Ac(a2-3)Gal(b1-4)GlcNAc(b1-6)[Gal(b1-3)]GalNAc
# How it was run: as §1
# [18] = biological target: Neu5Ac(a2-3)Gal(b1-4)GlcNAc(b1-6)[Neu5Ac(a2-3)Gal(b1-3)]GalNAc
# How it was run: as §1
# [19] = biological target: Neu5Ac(a2-3)Gal(b1-4)GlcNAc6S
# How it was run: as §1
# [20] = biological target: Neu5Ac(a2-3)Gal(b1-4)[Fuc(a1-3)]GlcNAc
# How it was run: as §1
# [21] = biological target: Neu5Ac(a2-3)Gal(b1-4)[Fuc(a1-3)]GlcNAc(b1-2)Man
# How it was run: as §1
# [22] = biological target: Neu5Ac(a2-3)Gal(b1-4)[Fuc(a1-3)]GlcNAc(b1-3)Gal
# How it was run: as §1
# [23] = biological target: Neu5Ac(a2-3)Gal(b1-4)[Fuc(a1-3)]GlcNAc(b1-3)Gal(b1-4)GlcNAc
# How it was run: as §1
# [24] = biological target: Neu5Ac(a2-3)Gal(b1-4)[Fuc(a1-3)]GlcNAc(b1-3)Gal(b1-4)[Fuc(a1-3)]GlcNAc(b1-3)Gal(b1-4)[Fuc(a1-3)]GlcNAc
# How it was run: as §1
# [25] = biological target: Neu5Ac(a2-3)Gal(b1-4)[Fuc(a1-3)]GlcNAc(b1-3)GalNAc
# How it was run: as §1
# [26] = biological target: Neu5Ac(a2-3)Gal(b1-4)[Fuc(a1-3)]GlcNAc(b1-6)[Gal(b1-3)]GalNAc
# How it was run: as §1
# [27] = biological target: Neu5Ac(a2-3)Gal(b1-4)[Fuc(a1-3)]GlcNAc(b1-6)[Neu5Ac(a2-3)Gal(b1-3)]GalNAc
# How it was run: as §1
# [28] = biological target: Neu5Ac(a2-3)Gal(b1-4)[Fuc(a1-3)]GlcNAc6S
# How it was run: as §1
# [29] = biological target: Neu5Ac(a2-3)Gal6S(b1-4)GlcNAc
# How it was run: as §1
# [30] = biological target: Neu5Ac(a2-3)Gal6S(b1-4)[Fuc(a1-3)]GlcNAc
# How it was run: as §1
# [31] = biological target: Neu5Ac(a2-3)GalNAc
# How it was run: as §1
# [32] = biological target: Neu5Ac(a2-3)GalNAc(b1-4)GlcNAc
# How it was run: as §1
# [33] = biological target: Neu5Ac(a2-3)[GalNAc(b1-4)]Gal(b1-4)Glc
# How it was run: as §1
# [34] = biological target: Neu5Ac(a2-3)[GalNAc(b1-4)]Gal(b1-4)GlcNAc
# How it was run: as §1
# [35] = biological target: Neu5Ac(a2-3)[GalNAc(b1-4)]Gal(b1-4)GlcNAc(b1-3)GalNAc
# How it was run: as §1
# [36] = biological target: Neu5Ac(a2-3)[Neu5Ac(a2-6)]GalNAc
# How it was run: as §1
# [37] = biological target: Neu5Ac(a2-6)Gal
# How it was run: as §1
# [38] = biological target: Neu5Ac(a2-6)Gal(b1-3)GlcNAc(b1-3)[Gal(b1-4)GlcNAc(b1-6)]Gal(b1-4)Glc
# How it was run: as §1
# [39] = biological target: Neu5Ac(a2-6)Gal(b1-4)Glc
# How it was run: as §1
# [40] = biological target: Neu5Ac(a2-6)Gal(b1-4)GlcNAc
# How it was run: as §1
# [41] = biological target: Neu5Ac(a2-6)Gal(b1-4)GlcNAc(b1-2)Man
# How it was run: as §1
# [42] = biological target: Neu5Ac(a2-6)Gal(b1-4)GlcNAc(b1-2)Man(a1-3)Man(b1-4)GlcNAc(b1-4)GlcNAc
# How it was run: as §1
# [43] = biological target: Neu5Ac(a2-6)Gal(b1-4)GlcNAc(b1-2)Man(a1-3)[Gal(b1-4)GlcNAc(b1-2)Man(a1-6)]Man(b1-4)GlcNAc(b1-4)GlcNAc
# How it was run: as §1
# [44] = biological target: Neu5Ac(a2-6)Gal(b1-4)GlcNAc(b1-2)Man(a1-3)[GlcNAc(b1-2)Man(a1-6)]Man(b1-4)GlcNAc(b1-4)GlcNAc
# How it was run: as §1
# [45] = biological target: Neu5Ac(a2-6)Gal(b1-4)GlcNAc(b1-2)Man(a1-3)[GlcNAc(b1-4)][Neu5Ac(a2-6)Gal(b1-4)GlcNAc(b1-2)Man(a1-6)]Man(b1-4)GlcNAc(b1-4)GlcNAc
# How it was run: as §1
binder,measurement,setting,value
B1,glycan array binding signal (z-score),[1],0.714
same,glycan array binding signal (z-score),[2],-0.002
same,glycan array binding signal (z-score),[3],-0.749
same,glycan array binding signal (z-score),[4],-0.687
same,glycan array binding signal (z-score),[5],-0.584
same,glycan array binding signal (z-score),[6],0.572
same,glycan array binding signal (z-score),[7],0.388
same,glycan array binding signal (z-score),[8],0.238
same,glycan array binding signal (z-score),[9],2.23
same,glycan array binding signal (z-score),[10],0.384
same,glycan array binding signal (z-score),[11],6.15
same,glycan array binding signal (z-score),[12],-0.019
same,glycan array binding signal (z-score),[13],-0.621
same,glycan array binding signal (z-score),[14],-0.374
same,glycan array binding signal (z-score),[15],1.61
same,glycan array binding signal (z-score),[16],-0.387
same,glycan array binding signal (z-score),[17],-0.572
same,glycan array binding signal (z-score),[18],0.634
same,glycan array binding signal (z-score),[19],-0.499
same,glycan array binding signal (z-score),[20],-0.621
same,glycan array binding signal (z-score),[21],0.73
same,glycan array binding signal (z-score),[22],-0.657
same,glycan array binding signal (z-score),[23],-0.112
same,glycan array binding signal (z-score),[24],-0.602
same,glycan array binding signal (z-score),[25],0.114
same,glycan array binding signal (z-score),[26],-0.041
same,glycan array binding signal (z-score),[27],2.39
same,glycan array binding signal (z-score),[28],-0.619
same,glycan array binding signal (z-score),[29],-0.712
same,glycan array binding signal (z-score),[30],-0.667
same,glycan array binding signal (z-score),[31],0.082
same,glycan array binding signal (z-score),[32],-0.015
same,glycan array binding signal (z-score),[33],-0.544
same,glycan array binding signal (z-score),[34],-0.449
same,glycan array binding signal (z-score),[35],0.064
same,glycan array binding signal (z-score),[36],0.199
same,glycan array binding signal (z-score),[37],-0.515
same,glycan array binding signal (z-score),[38],-0.621
same,glycan array binding signal (z-score),[39],-0.183
same,glycan array binding signal (z-score),[40],-0.203
same,glycan array binding signal (z-score),[41],-0.524
same,glycan array binding signal (z-score),[42],2.13
same,glycan array binding signal (z-score),[43],-0.151
same,glycan array binding signal (z-score),[44],-0.56
same,glycan array binding signal (z-score),[45],-0.604
